# Some of the results follow. Sequences were assembled here from the parent chain. Inactive controls read about 0.05.
# B1: TEV protease; numbered along this chain (parent)
# chain: MGESLFKGPRDYNPISSSICHLTNESDGHTTSLYGIGFGPFIITNKHLFRRNNGTLVVQSLHGVFKVKDTTTLQQHLVDGRDMIIIRMPKDFPPFPQKLKFREPQREERICLVTTNFQTKSMSSMVSDTSCTFPSGDGIFWKHWIQTKDGQCGSPLVSTRDGFIVGIHSASNFTNTNNYFTSVPKNFMELLTNQEAQQWVSGWRLNADSVLWGGHKVFMVKPEEPFQPVKEATQL
# Variants of: B1
# Assay: raw area under fraction-flipped curve 0-4 h after induction (AUC4h, not background-subtracted), DNA-recorder readout of cleavage of the substrate (dimensionless); higher = more cleavage of the substrate by the protease variant
# Settings: temperature: 34 °C; time window: 0-4 h after rhamnose induction
# Procedure: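 In vivo DNA recorder in E. coli TOP10(DE3) ΔrhaA at 34 °C. Each TEVp single-site mutant (parent TEVp 0) is paired with a single-site variant of the 7-mer TEVs (canonical ENLYFQ|S). The substrate sits between flexible linkers in a Bxb1-sfGFP-TEVs-SsrA fusion, so cleavage stabilises Bxb1 and speeds flipping of a recombination array, read by NGS. The value is the raw area under the fraction-flipped curve over 0-4 h after rhamnose induction (AUC4h), with ≥20 reads per time point. It is not background-subtracted; inactive controls average about 0.047.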
# 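Note: Bxb1 expression induced with 0.2% (w/v) L-rhamnose at OD600 near 0.5, cultures sampled hourly, flipped fraction per protease–substrate barcode pair counted by paired-end Illumina sequencing.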
Variant,area with substrate GNLYFQS,area with substrate MNLYFQS,area with substrate SNLYFQS,area with substrate TNLYFQS,area with substrate WNLYFQS,area with substrate INLYFQS,area with substrate QNLYFQS,area with substrate VNLYFQS,area with substrate HNLYFQS,area with substrate KNLYFQS
W203S,0.068,0.0595,0.0467,0.0431,0.0515,–,–,–,–,–
C131I,0.0348,–,–,0.0773,–,0.058,0.0686,0.0657,–,–
V183G,0.0453,0.0442,0.0412,0.0543,0.0503,–,–,0.0447,0.0509,0.0724
G35D,0.0295,–,–,–,0.0314,0.0427,–,–,–,–
V217L,–,–,–,0.0591,0.0437,–,–,0.0608,0.0731,–
P93C,0.0725,–,0.0656,0.0701,–,0.0743,–,–,0.04,0.0654
K100Q,0.0738,0.0569,0.0565,0.0486,–,0.0994,0.0561,–,0.0743,–
N193Y,0.0597,–,–,–,0.0639,0.0666,–,–,0.059,0.0812
N177Q,0.0817,–,–,–,–,–,–,–,–,–
V78N,0.0535,0.0793,0.0564,0.0488,0.0558,–,0.0534,–,0.0525,–
W141F,0.0484,0.0519,0.0445,0.0728,–,0.0922,–,–,–,–
L77R,0.0668,0.0554,0.0586,0.0579,0.0525,0.0478,–,0.0575,0.0653,–
T119Q,0.0829,–,–,–,0.0593,–,–,–,–,0.0613
T119S,–,–,0.0306,–,–,0.0729,–,–,0.0625,–
N178S,0.0706,0.0626,–,0.0718,0.065,–,–,0.0681,0.0515,–
M83R,0.0535,–,0.0509,0.0632,0.048,–,–,–,–,–
Q97D,0.0476,0.0729,0.0953,–,–,–,–,–,–,–
Q97E,0.0709,–,–,–,–,–,–,–,–,–
K98V,–,–,0.0668,–,0.0541,0.0607,0.057,–,0.0721,–
M125Y,0.0468,–,0.0568,0.0611,0.0587,0.0712,–,–,0.0677,–
G214E,0.0499,0.0539,–,–,–,0.0612,–,–,0.0629,–
R87V,0.0572,–,0.0514,0.0749,–,–,–,–,0.0565,–
Q197R,0.0564,0.0554,–,–,–,–,–,–,–,–
Q197I,0.0712,–,0.0841,–,0.0618,–,–,–,0.0726,–

Variant,area with substrate GNLYFQS,area with substrate MNLYFQS,area with substrate SNLYFQS,area with substrate TNLYFQS,area with substrate WNLYFQS,area with substrate INLYFQS,area with substrate QNLYFQS,area with substrate VNLYFQS,area with substrate HNLYFQS,area with substrate KNLYFQS
E189L,0.0612,–,0.0653,0.0584,–,0.0678,0.0598,0.0463,0.0638,–
G2F,0.0767,0.0835,–,0.0519,0.0586,–,–,0.0577,–,0.0754
T174G,0.0595,0.0638,–,–,0.058,0.0582,–,0.0757,0.0649,0.0713
A170K,–,0.0606,0.0557,–,–,–,–,0.0597,0.0666,0.0658
L99V,0.0643,0.0616,0.0524,0.065,0.0552,0.0673,–,0.0799,0.0499,0.0617
D137H,0.0709,0.069,–,–,–,–,–,–,–,–
R109K,0.0644,–,–,–,0.0423,–,–,–,–,–
D82V,0.0521,–,0.0593,–,0.0618,–,–,–,0.0611,–
Q198P,0.0621,–,0.067,–,0.0514,0.0631,–,0.0604,0.0651,0.0546
G153T,0.0636,0.0633,0.0485,0.0468,–,0.0478,–,–,0.0541,0.0517
R51N,–,0.0559,–,0.0684,–,0.07,–,–,–,–
S135L,0.0666,–,0.0912,–,0.0619,–,–,0.0904,0.0585,–
E231I,0.0572,–,0.0519,0.0639,0.0694,0.0656,–,0.0615,0.0606,0.0557
T233P,0.0756,0.0646,0.0761,0.0641,0.052,–,–,–,–,–
S201C,0.0634,–,0.0923,0.0595,0.0706,0.0584,–,–,–,0.0486
R106N,0.0698,–,–,0.0469,–,–,–,0.0721,0.074,0.0663
G150A,0.0563,–,–,–,–,–,–,–,–,–
F92N,–,–,0.0558,–,–,–,–,0.0592,0.0764,–
F92G,0.0564,–,–,–,0.0639,–,–,–,–,–
T159K,0.0483,–,–,0.0432,0.0657,0.0709,–,–,0.0633,–
Q194A,0.0443,0.0662,–,0.064,–,–,–,0.07,–,0.0675
I84N,–,–,0.0588,0.0509,–,–,–,–,0.0956,0.0708
F163A,0.0668,–,–,–,–,–,–,–,–,–
I85H,0.0698,–,–,–,–,–,–,–,0.058,–

# Same assay, conditions: temperature: 34 °C; time window: 0-4 h after rhamnose induction
Variant,area with substrate LNLYFQS,area with substrate NNLYFQS,area with substrate PNLYFQS,area with substrate FNLYFQS,area with substrate YNLYFQS,area with substrate RNLYFQS
V183G,0.0444,0.041,–,–,–,–
G35D,–,0.0394,0.0247,–,–,–
V217L,0.0693,–,–,0.0552,–,–
P93C,–,–,0.0604,–,0.0523,–
K100Q,0.0568,–,–,–,0.0585,–
V78N,–,0.0399,–,–,0.0552,–
W141F,–,–,0.0574,–,0.0622,–
L77R,0.0924,–,0.0547,–,0.062,–
T119S,0.0616,–,–,0.0599,–,–
N178S,0.0886,–,–,–,0.0578,–
M83R,0.0517,0.0559,–,–,–,0.0634
Q97C,–,0.0874,–,0.0767,–,–
Q97D,–,0.0642,–,–,–,–
Q97E,–,–,–,–,0.0443,–
K98V,–,–,0.0837,0.0669,–,–
M125Y,0.0625,–,0.0661,–,0.0705,–
G214E,0.0684,–,0.0551,–,–,–
R87V,–,–,0.0561,–,–,–
Q197R,–,–,–,0.0722,–,–
Q197I,–,–,0.0429,–,0.0607,–
E189L,0.0609,0.0632,0.0606,–,0.0339,0.0621

Variant,area with substrate LNLYFQS,area with substrate NNLYFQS,area with substrate PNLYFQS,area with substrate FNLYFQS,area with substrate YNLYFQS,area with substrate RNLYFQS
G2F,–,–,0.0811,–,0.0829,–
T174G,0.0587,0.0417,0.0523,–,0.0979,–
A170K,0.0584,–,–,0.0577,–,–
L99V,–,0.0584,0.0658,–,0.0547,–
D137H,0.0797,0.0619,0.0738,–,0.0579,–
R109K,–,0.0522,0.066,0.0773,–,0.0432
D82V,–,–,0.046,–,–,0.0548
Q198P,–,0.0549,0.0845,–,–,–
G153T,–,–,–,–,0.0463,–
R51N,0.0802,–,–,0.0495,–,–
S135L,0.0503,–,–,–,–,–
E231I,0.061,0.0605,0.0559,–,0.0536,–
S201C,–,0.0776,0.0639,–,0.0588,–
R106N,–,0.0683,0.0734,–,–,–
G150A,–,–,0.059,–,–,–
F92N,0.0528,–,0.0744,0.0643,0.0543,–
T159K,0.0557,–,–,0.0628,0.0646,–
Q194A,0.0525,0.0638,0.0714,–,–,–
I84N,–,–,0.0886,0.0621,–,–
F163A,–,–,0.0717,–,–,–
I85H,0.0215,0.0633,–,–,0.0491,–

# From the supplement of paper PMC12217912
